Test results as given in the RNAGym collection of RNA variant scans (doi:10.7554/elife.90254).
Read counts are not given, so values of variants with three or more changes are uncertain.

B1: LINE1-mini (parent)
chain: GGCAGAGCUCAACACAGCGUGGCAAAGUGGCUGUGGCUAGACUGCC

Variants of: B1
Experiment: self-cleavage, relative activity (ratio to wild type); higher = more cleavage; in vitro, sequencing; the parent is a self-cleaving ribozyme

Variant | self-cleavage
GGCAGAGCUCAACACAGCGUGGCAAAGGGGUUGUGGCCAGACUGCC | 0.24
GGCAGAGCUCAACACAGCGUGGCAAAGGGGUUGUGGAUAGACUGGA | 0.07
GGCAGAGCUCAACACAGCGUGGCAAAGCGGCUAUGGCCAGACUAAC | 0.03
GGCAGAGCUCAACACAGCGUGGCAAAGCGGCUGUACCAAGACUGCC | 0.04
GGCAGAGCUCAACACAGCGUGGCAAAGCGGCCGUGGCUAGACUCCC | 0.04
GGCAGAGCUCAACACAGCGUGGCAAAGGGGCGGAGGGUAGACUGCC | 0.02
GGCAGAGCUCAACACAGCGUGGCAAAGCGACUUUGGCUAGACUGCC | 0.08
GGCAGAGCUCAACACAGCGUGGCAAAGGGGCUGUGGCUAUCCUGCC | 0.06
GGCAGAGCUCAACACAGCGUGGCAAAGUCGAUGUGACUAGACUGCG | 0.13
GGCAGAGCUCAACACAGCGUGGCAAAGUAGAUGUGGCUACACUGCA | 0.01
GGCAGAGCUCAACACAGCGUGGCAAAGGGCCUGUGGGUAGACUGCC | 0
GGCAGAGCUCAACACAGCGUGGCAAAGGGGCUGUGACUAGAAUGCC | 0.16
GGCAGAGCUCAACACAGCGUGGCAAAGUAGCUGUGACCAGACUGCC | 0.17
GGCAGAGCUCAACACAGCGUGGCAAAGCGUCAGUGGAUAGACUUCC | 0.02
GGCAGAGCUCAACACAGCGUGGCAAAGUAGCUGUGGCUGGACAGCC | 0.19
GGCAGAGCUCAACACAGCGUGGCAAAGGGGCCGUGGCUAGACUGCA | 0.09
GGCAGAGCUCAACACAGCGUGGCAAAGGGGCCGUGGCUAGACUGCU | 0.05
GGCAGAGCUCAACACAGCGUGGCAAAGUAGCUGUGGCUAAACCGCG | 0.01
GGCAGAGCUCAACACAGCGUGGCAAAGCGGCUCUGGCCAGAAUCCC | 0
GGCAGAGCUCAACACAGCGUGGCAAAGUAGCUGUGUCUAGCCUGCU | 0.02
GGCAGAGCUCAACACAGCGUGGCAAAGGGGUUGUGGCUACACUGAU | 0
GGCAGAGCUCAACACAGCGUGGCAAAGGGGCUGUGGCUAGACAGCU | 0.02
GGCAGAGCUCAACACAGCGUGGCAAAGUAGCUGUGGAUAGACGGCC | 0.01

Variant | self-cleavage
GGCAGAGCUCAACACAGCGUGGCAAAGGGGCUCUGGCGAGGUUGCC | 0.01
GGCAGAGCUCAACACAGCGUGGCAAAGUAGCUGUUGCUAGAAUUCC | 0.02
GGCAGAGCUCAACACAGCGUGGCAAAGCGGCUAUGGCUAGACUUCC | 0.03
GGCAGAGCUCAACACAGCGUGGCAAAGGGGCUGAGGCUAGACUACC | 0.03
GGCAGAGCUCAACACAGCGUGGCAAAGUCUCAGUGGGUAGACUGCC | 0.05
GGCAGAGCUCAACACAGCGUGGCAAAGCGGCUGUGGCUAGAGUGGC | 0.03
GGCAGAGCUCAACACAGCGUGGCAAAGGGGUUGUGGCUAGAAUGCC | 0.04
GGCAGAGCUCAACACAGCGUGGCAAAGCGGCUGUUGCUAUACUGCC | 0.17
GGCAGAGCUCAACACAGCGUGGCAAAGGGGCUGUGUCAAGACUGCC | 0.01
GGCAGAGCUCAACACAGCGUGGCAAAGUACCUGUGGCUAUACUGCC | 0.06
GGCAGAGCUCAACACAGCGUGGCAAAGUCGGUGUGUCUAGACUGAC | 0.03
GGCAGAGCUCAACACAGCGUGGCAAAGCGUCUGUGGCUAUACUGCC | 0.03
GGCAGAGCUCAACACAGCGUGGCAAAGUAGCUGCGGCUAGACUACC | 0.09
GGCAGAGCUCAACACAGCGUGGCAAAGUCGCUGUGGCUCGACUGCA | 0.01
GGCAGAGCUCAACACAGCGUGGCAAAGGGGCUGUAGCUAGACGGCC | 0.26
GGCAGAGCUCAACACAGCGUGGCAAAGUAGUUGUGGCUAGUCUGCC | 0.55
GGCAGAGCUCAACACAGCGUGGCAAAGCGGCUUUGGAGAGACUGCC | 0.01
GGCAGAGCUCAACACAGCGUGGCAAAGUAGCUGUGAAUAGACUGCU | 0.06
GGCAGAGCUCAACACAGCGUGGCAAAGUAGCUGUGGCUAGACGGCA | 0.06
GGCAGAGCUCAACACAGCGUGGCAAAGCGGCUCAAGCUAGACUGCC | 0.1
GGCAGAGCUCAACACAGCGUGGCAAAGUAGCUAUGGCUAGACUGCG | 0.11
GGCAGAGCUCAACACAGCGUGGCAAAGUAUCUGUUGCUAGACUGCC | 0.14
GGCAGAGCUCAACACAGCGUGGCAAAGGGGCUGGGUCUAGACUGCC | 0.02

Variant | self-cleavage
GGCAGAGCUCAACACAGCGUGGCAAAGUCACUUUGGCUAGACUGCC | 0.17
GGCAGAGCUCAACACAGCGUGGCAAAGGGGCAAUGGCUAGACUGCC | 0.02
GGCAGAGCUCAACACAGCGUGGCAAAGCGACUGUGGCUAGUUUGUC | 0.05
GGCAGAGCUCAACACAGCGUGGCAAAGUCAUUGUGGCUAGACUGCC | 0.11
GGCAGAGCUCAACACAGCGUGGCAAAGGGGCAGUGGCAAGACUGCC | 0.12
GGCAGAGCUCAACACAGCGUGGCAAAGGGGCUGCGGCUAGACUUCC | 0.23
GGCAGAGCUCAACACAGCGUGGCAAAGGGGCUGUAACGAGACUGCC | 0.01
GGCAGAGCUCAACACAGCGUGGCAAAGGUGCUGCGGCUAGACUGAC | 0.12
GGCAGAGCUCAACACAGCGUGGCAAAGUAUCUGUAGCUAGACUGCU | 0.13
GGCAGAGCUCAACACAGCGUGGCAAAGGGGCUGUGCCUGGACUGCC | 0.02
GGCAGAGCUCAACACAGCGUGGCAAAGUAGCUGUGGUUAGCCUGCC | 0
GGCAGAGCUCAACACAGCGUGGCAAAGCGGUUGUGGCUAGACUGCA | 0.05
GGCAGAGCUCAACACAGCGUGGCAAAGCGGCUGGGGCUAGACUUCC | 0.04
GGCAGAGCUCAACACAGCGUGGCAAAGCGGCUGCGGCUAGACUUCC | 0.04
GGCAGAGCUCAACACAGCGUGGCAAAGUCUCUGUGUCUAGAAUGCC | 0.03
GGCAGAGCUCAACACAGCGUGGCAAAGCGGCUGUGCCAAGACUGCC | 0.01
GGCAGAGCUCAACACAGCGUGGCAAAGGGGUUCUGGCUAGACUGCC | 0.01
GGCAGAGCUCAACACAGCGUGGCAAAGGGGCCGUGGAUAUACUGCC | 0.09
GGCAGAGCUCAACACAGCGUGGCAAAGCGGCUUUGGCUAGACUGAC | 0.13
GGCAGAGCUCAACACAGCGUGGCAAAGCGGCUGUGGCUAUACGGCC | 0
GGCAGAGCUCAACACAGCGUGGCAAAGUCGCUGUGGCUAGUCUCCA | 0.17
GGCAGAGCUCAACACAGCGUGGCAAAGGUGCUGUGGCUAUACUGCC | 0.03
GGCAGAGCUCAACACAGCGUGGCAAAGUCGUUGCGGCUAGACUGUC | 0.05

Variant | self-cleavage
GGCAGAGCUCAACACAGCGUGGCAAAGGAGCUGUGGCUAGACAGCC | 0.07
GGCAGAGCUCAACACAGCGUGGCAAAGUCUCUGUGGUUAGACCGCC | 0.04
GGCAGAGCUCAACACAGCGUGGCAAAGCGGCUUUCGCCAGACUGCC | 0.18
GGCAGAGCUCAACACAGCGUGGCAAAGCGGCAGUGGCUAGCCUGCC | 0.05
GGCAGAGCUCAACACAGCGUGGCAAAGUAGCUAUUGCUAGACUGCC | 0
GGCAGAGCUCAACACAGCGUGGCAAAGUAGCUUUCGCUAGACUGGC | 0.01
GGCAGAGCUCAACACAGCGUGGCAAAGGGGCUGGGGCAAGACUGCC | 0.19
GGCAGAGCUCAACACAGCGUGGCAAAGGUGAUGUGGCUAGUCUGCC | 0.19
GGCAGAGCUCAACACAGCGUGGCAAAGUAGGUGUGGCCAGACUGCC | 0.89
GGCAGAGCUCAACACAGCGUGGCAAAGGGGCGGCGGCUAGACUUCC | 0.01
GGCAGAGCUCAACACAGCGUGGCAAAGUAGCUAUGUCUAGACUGCC | 0.05
GGCAGAGCUCAACACAGCGUGGCAAAGCGGCUGGAGCUAGACUGCC | 0.03
GGCAGAGCUCAACACAGCGUGGCAAAGUAGCUGUGGCUAAACUUCC | 0.17
GGCAGAGCUCAACACAGCGUGGCAAAGUAGCUGUGGCUAGUCUGGC | 0.35
GGCAGAGCUCAACACAGCGUGGCAAAGUAACUGUGGCUAGACAGCC | 0.38
GGCAGAGCUCAACACAGCGUGGCAAAGUCGCUGUGGCUAGUAUGCC | 0
GGCAGAGCUCAACACAGCGUGGCAAAGUAGCAGUGGCUAGCCUGCC | 0.1
GGCAGAGCUCAACACAGCGUGGCAAAGUCGCUGUGGUUUGACUGGC | 0.04
GGCAGAGCUCAACACAGCGUGGCAAAGUAACUGUGGGUAGACUGCC | 0.05
GGCAGAGCUCAACACAGCGUGGCAAAGCGGCCGUUCCUAGACUGAG | 0.07
GGCAGAGCUCAACACAGCGUGGCAAAGUCGUUGUGGCUAGACUGCA | 0.33
GGCAGAGCUCAACACAGCGUGGCAAAGGGGCUAUGGCUAGAGUGCC | 0.03
GGCAGAGCUCAACACAGCGUGGCAAAGUAGCUGUGGAUAGGCGGCC | 0.01

Variant | self-cleavage
GGCAGAGCUCAACACAGCGUGGCAAAGUAUCUGUGGCUAGAUUGCC | 0.13
GGCAGAGCUCAACACAGCGUGGCAAAGGGGCUAUGCCUAGACUGAC | 0
GGCAGAGCUCAACACAGCGUGGCAAAGUCGCUGUGGAUAGACAGCC | 0.01
GGCAGAGCUCAACACAGCGUGGCAAAGUAGCUGAAGCUAGACUGCC | 0.17
GGCAGAGCUCAACACAGCGUGGCAAAGCAGCUGUGGUUAGACUGCC | 0.02
GGCAGAGCUCAACACAGCGUGGCAAAGCGACUGUGGCUAGACUGUC | 0.85
GGCAGAGCUCAACACAGCGUGGCAAAGGGACUGUGGCUAAACUGCC | 0.02
GGCAGAGCUCAACACAGCGUGGCAAAGUCGCUGUGGAUAGACUGUU | 0.07
GGCAGAGCUCAACACAGCGUGGCAAAGGGGGUGUGGCUAGCCCGCC | 0.01
GGCAGAGCUCAACACAGCGUGGCAAAGUAGCUGUGGCGAGACUGGA | 0.01
GGCAGAGCUCAACACAGCGUGGCAAAGUAGCAGUGGCUAGAAUGCC | 0.08
GGCAGAGCUCAACACAGCGUGGCAAAGGGGCUGUGGCUAGGCUGCG | 0.07
GGCAGAGCUCAACACAGCGUGGCAAAGGAGCUGUGGCUAGACUGCA | 0.44
GGCAGAGCUCAACACAGCGUGGCAAAGGGGCUGCCGCUAGACUGCC | 0.01
GGCAGAGCUCAACACAGCGUGGCAAAGCGGCUAUUGCUAGACUGCC | 0.23
GGCAGAGCUCAACACAGCGUGGCAAAGGGGCUGUGGCCGGACUGCC | 0.07
GGCAGAGCUCAACACAGCGUGGCAAAGUAUCUGUGGCUGGACUGCG | 0.03
GGCAGAGCUCAACACAGCGUGGCAAAGUAGCUGUGUCUAUACAGCG | 0.01
GGCAGAGCUCAACACAGCGUGGCAAAGUAACAGUGGCUAGACUGCC | 0.18
GGCAGAGCUCAACACAGCGUGGCAAAGCGGUUGUGGCUAGACUGAC | 0.35
